Measurements published in the supplement of paper PMC3334620.
Over roughly 33,000 sequences, “E-score (-0.5 to 0.5)” has its median near -0.036; the highest 2% begin near 0.37. The list shows a part of the results.

Biological target: T1, Yer064c (UniProt P40041)
T1 sequence: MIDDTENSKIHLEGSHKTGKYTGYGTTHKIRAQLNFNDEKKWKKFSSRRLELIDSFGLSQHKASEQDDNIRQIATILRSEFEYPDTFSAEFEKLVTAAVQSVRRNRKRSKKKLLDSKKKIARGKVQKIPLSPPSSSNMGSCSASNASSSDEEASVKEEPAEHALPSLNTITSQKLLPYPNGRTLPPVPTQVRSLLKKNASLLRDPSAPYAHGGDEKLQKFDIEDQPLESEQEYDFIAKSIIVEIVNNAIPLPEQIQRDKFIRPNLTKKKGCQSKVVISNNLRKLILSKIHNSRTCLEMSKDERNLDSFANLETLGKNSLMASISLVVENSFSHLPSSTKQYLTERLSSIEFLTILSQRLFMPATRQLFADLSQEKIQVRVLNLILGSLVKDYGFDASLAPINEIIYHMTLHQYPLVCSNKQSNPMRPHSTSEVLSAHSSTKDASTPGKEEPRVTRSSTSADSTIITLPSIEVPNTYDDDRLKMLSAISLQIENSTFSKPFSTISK
Test: PBM E-score (8-mer binding enrichment) (E-score (-0.5 to 0.5)); higher = stronger / more preferred TF binding; most listed sequences are background and not binding sites
Settings: protein concentration: 200 nM; construct: GST-full length
How it was run: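 Masliner-normalised scans of fluorescent anti-GST signal were the basis for scoring. That signal came from GST-tagged yeast transcription factors applied at about 100-200 nM to double-stranded universal all-10-mer Agilent arrays on fresh or once-stripped slides. Each ungapped eight-base word, pooled with its reverse complement, received an E-score from the Universal PBM Analysis Suite.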

| Sequence | PBM E-score |
| --- | --- |
| ACCCGCGG | 0.0279 |
| CGTTCTAC | -0.11 |
| AGAAAGCC | -0.115 |
| AAAGGGAT | -0.181 |
| GCTTACAA | 0.0653 |
| AGCCTCGA | -0.0164 |
| AGTCACCG | 0.476 |
| TACCCGCA | 0.138 |
| CAATGGAG | -0.128 |
| CAAGAAAA | 0.0516 |
| CTCGGGCA | 0.0456 |
| CGAGCCGA | 0.0659 |
| CTTAGTGA | 0.248 |
| AGACCATA | 0.0818 |
| GGTACCCA | 0.1 |
| AAGGGCCG | -0.32 |
| AACATGCC | -0.132 |
| ATTACCAA | 0.114 |
| CCGCTACA | -0.187 |
| GCAAGTCC | -0.0536 |
| CCGTCGCC | -0.321 |
| GGTGAATA | -0.115 |
| AAACAGAC | -0.0305 |
| ACGGACTA | 0.205 |
| ATCTGATC | 0.0976 |

| Sequence | PBM E-score |
| --- | --- |
| CGCTTAAG | -0.0342 |
| TAACCGAA | -0.0477 |
| AACGTTCA | -0.336 |
| GGTAGGAA | 0.065 |
| ATCAAAAT | 0.152 |
| CATGCGTA | -0.0672 |
| AGGGCATC | -0.26 |
| AATACTAA | 0.131 |
| TGCACGCA | -0.164 |
| CCAAGAAA | 0.113 |
| CATCCAGG | -0.0695 |
| GGAACCAC | -0.0181 |
| AGCGTATA | 0.0783 |
| AAGCCGGC | -0.171 |
| CACTATAA | -0.0109 |
| ATATACTC | 0.103 |
| AGCAATTG | -0.132 |
| ACGCAGCT | -0.113 |
| CCAAGGTC | -0.1 |
| GCGGTCTA | -0.0572 |
| CGTGGTAG | -0.0852 |
| AAATCCGA | 0.00534 |
| GTGACCTA | 0.0665 |
| CGCTGATC | -0.0444 |
| CCCCATAC | -0.176 |

| Sequence | PBM E-score |
| --- | --- |
| CCTTGTAC | -0.0911 |
| AGCTCAGG | 0.102 |
| AGTTTTGG | -0.056 |
| CCAACGGA | -0.28 |
| AGCGCACT | -0.188 |
| ACCATCGG | 0.033 |
| AACGATCT | -0.0857 |
| GCTACTCA | 0.224 |
| ATACAGGA | -0.1 |
| ACCGCGTA | -0.151 |
| CTCAACTC | 0.0537 |
| AGAAACTC | 0.0151 |
| CCGGTCAC | 0.0146 |
| AGGGACCA | -0.164 |
| AGTCTACC | 0.196 |
| ACTGTTAG | 0.103 |
| GCTCCGCC | -0.184 |
| GCACGAGC | -0.168 |
| ACGTTCGG | -0.111 |
| AGAAACAT | -0.0247 |
| GCATAGAC | -0.0303 |
| AGGACAGC | -0.109 |
| GACACCCC | 0.0388 |
| CACTAACC | -0.153 |
| ACAAGTGA | 0.11 |

| Sequence | PBM E-score |
| --- | --- |
| CGAAGTGA | 0.178 |
| AAGACGAT | -0.0404 |
| ATGAGCAA | 0.102 |
| GCGTACTA | 0.0745 |
| AGCGCGCC | -0.341 |
| AAAGGTAC | 0.0276 |
| AATCGATG | 0.196 |
| ATACTGAG | 0.171 |
| CATGTCAC | -0.0241 |
| TCCCCCGA | -0.176 |
| CCAAAATA | 0.0881 |
| ATGCGAAG | -0.0967 |
| ATCCGAGG | 0.103 |
| AGGTTGCA | -0.138 |
| CAGGCCAG | -0.188 |
| CCAGGAGG | -0.203 |
| AAATCGAA | -0.104 |
| GATGGTTA | 0.343 |
| CAGACAAG | -0.0699 |
| ATTAGAAG | 0.132 |
| CAACAGAA | 0.109 |
| CTAAATGC | 0.0741 |
| GGGGGAAA | -0.361 |
| AAAGGGAA | 0.111 |
| CAGTATAC | 0.185 |

| Sequence | PBM E-score |
| --- | --- |
| AACGAATG | 0.0336 |
| CGGGGTTC | -0.169 |
| CAAATACG | -0.144 |
| ATTCAGCA | 0.228 |
| CAAAGAGC | -0.11 |
| GGAGCCCC | -0.339 |
| CTTTTCAA | 0.0744 |
| GAAAATAC | -0.116 |
| CGTAGACA | -0.0345 |
| TGCCCCAA | 0.0126 |
| GAGGTTAC | 0.00602 |
| CGCCGAGC | -0.123 |
| CCTTGTGC | -0.043 |
| CCGTAAAG | -0.0714 |
| AAATCATG | 0.385 |
| CTGGTGGA | -0.0161 |
| GGCGCCCA | -0.127 |
| ATAGCCTA | 0.00883 |
| ATAACGGA | -0.0212 |
| AGGCTTAT | 0.0335 |
| GCTGCTAA | -0.0595 |
| AATACAGG | -0.138 |
| CGTGCAAC | 0.0096 |
| GTCTTAGA | 0.162 |
| ACGCGCCC | -0.175 |

| Sequence | PBM E-score |
| --- | --- |
| GTTGGCTA | -0.135 |
| AACAGATC | -0.107 |
| GGGTTACC | -0.17 |
| CCAGTCCG | -0.241 |
| CCATTATC | -0.0156 |
| TAATCAGA | 0.35 |
| CATTTCAC | -0.0472 |
| GCCCTCAC | -0.101 |
| CTCCGCAC | -0.00401 |
| CATCTGCC | -0.0814 |
| AACTGCTC | -0.11 |
| CCTGGGGC | -0.255 |
| ACATGAAT | 0.175 |
| CGCTCTCC | -0.184 |
| CCCCTCCA | -0.166 |
| CTATAACA | 0.0792 |
| ACGATGGG | -0.0235 |
| AGATTCCC | -0.0207 |
| ATACGCGG | -0.259 |
| AGGGACTG | 0.00864 |
| GCAAAAGA | -0.0521 |
| ACGATTAG | 0.152 |
| GTGTTTAA | 0.176 |
| ATAGCCCG | -0.289 |
| ATTCCTCC | -0.0909 |

| Sequence | PBM E-score |
| --- | --- |
| AAGTGATT | 0.394 |
| GGGTGAAC | 0.122 |
| CTGTTCGA | 0.0796 |
| CTAACGAA | 0.165 |
| ATAGACCG | -0.0671 |
| CTGTTGCC | -0.24 |
| GACTTTTA | 0.0908 |
| CTTCGCTC | -0.125 |
| CAGCTGGG | -0.136 |
| GGTTAATA | 0.11 |
| GAAATCCA | -0.168 |
| CTGCCGTC | -0.151 |
| AGACTACC | 0.354 |
| GCATAGCC | -0.248 |
| ATCAAACC | 0.149 |
| CGTGGATA | -0.117 |
| AACGAGTA | 0.171 |
| AGCACACT | -0.113 |
| ACGTTCAG | -0.206 |
| GCGGTACA | -0.0623 |
| ATCCAGTC | 0.16 |
| AAGCGGTC | -0.0189 |
